The supplement of paper PMC12217912
Some of the results follow. Sequences were assembled here from the parent chain. Values near 0.05 are background.

B1: TEV protease; numbered along this chain (parent)
chain: MGESLFKGPRDYNPISSSICHLTNESDGHTTSLYGIGFGPFIITNKHLFRRNNGTLVVQSLHGVFKVKDTTTLQQHLVDGRDMIIIRMPKDFPPFPQKLKFREPQREERICLVTTNFQTKSMSSMVSDTSCTFPSGDGIFWKHWIQTKDGQCGSPLVSTRDGFIVGIHSASNFTNTNNYFTSVPKNFMELLTNQEAQQWVSGWRLNADSVLWGGHKVFMVKPEEPFQPVKEATQL

Variants of: B1
Test: raw area under fraction-flipped curve 0-4 h after induction (AUC4h, not background-subtracted), DNA-recorder readout of cleavage of the substrate (dimensionless); higher = more cleavage of the substrate by the protease variant
Conditions: temperature: 34 °C; time window: 0-4 h after rhamnose induction
Protocol: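 In vivo DNA recorder in E. coli TOP10(DE3) ΔrhaA at 34 °C. Each TEVp single-site mutant (parent TEVp 0) is paired with a single-site variant of the 7-mer TEVs (canonical ENLYFQ|S). The substrate sits between flexible linkers in a Bxb1-sfGFP-TEVs-SsrA fusion, so cleavage stabilises Bxb1 and speeds flipping of a recombination array, read by NGS. The value is the raw area under the fraction-flipped curve over 0-4 h after rhamnose induction (AUC4h), with ≥20 reads per time point. It is not background-subtracted; inactive controls average about 0.047.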
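Note: Bxb1 expression induced with 0.2% (w/v) L-rhamnose at OD600 near 0.5, cultures sampled hourly, flipped fraction per protease–substrate barcode pair counted by paired-end Illumina sequencing.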

Row | Variant | area with substrate ENLYAQS | area with substrate ENLYDQS | area with substrate ENLYEQS | area with substrate ENLYGQS | area with substrate ENLYHQS | area with substrate ENLYIQS | area with substrate ENLYKQS | area with substrate ENLYMQS | area with substrate ENLYNQS | area with substrate ENLYPQS | area with substrate ENLYQQS | area with substrate ENLYSQS | area with substrate ENLYTQS | area with substrate ENLYVQS | area with substrate ENLYWQS | area with substrate ENLYYQS | area with substrate ENLYLQS | area with substrate ENLYRQS | area with substrate ENLYCQS
1 | F38Q | 0.0618 | 0.0571 | 0.0653 | 0.0657 | 0.0632 | 0.124 | 0.0542 | 0.0758 | 0.0618 | 0.0903 | 0.0493 | 0.0458 | 0.0504 | 0.117 | 0.0809 | 0.0596 |  |  | 
2 | L22Q | 0.0461 | 0.049 | 0.0515 | 0.0421 |  | 0.0434 | 0.0645 | 0.0384 | 0.0427 | 0.0485 | 0.0537 | 0.0492 |  | 0.0586 | 0.0457 |  | 0.0242 | 0.0375 | 
3 | I19A | 0.0639 |  | 0.0523 |  | 0.0637 |  | 0.067 |  | 0.0769 | 0.0628 | 0.0634 |  | 0.0929 | 0.0587 | 0.0864 |  |  | 0.0684 | 0.0804
4 | D11C | 0.0743 |  | 0.0623 | 0.0797 | 0.056 | 0.124 | 0.0554 | 0.084 | 0.0696 | 0.0732 | 0.059 |  | 0.065 | 0.132 | 0.0805 | 0.0536 |  | 0.0677 | 0.0817
5 | Y34S | 0.0927 |  |  | 0.0678 | 0.0636 | 0.114 | 0.021 |  |  |  |  |  | 0.0644 | 0.0746 |  | 0.0512 | 0.0667 | 0.0522 | 0.0774
6 | D27M | 0.0713 | 0.0581 | 0.0612 | 0.0453 | 0.0658 | 0.111 | 0.0588 | 0.0803 |  | 0.0737 |  | 0.0701 | 0.0624 | 0.111 | 0.0515 |  |  | 0.0656 | 0.0739
7 | I15T | 0.074 | 0.0516 | 0.056 | 0.069 | 0.0561 | 0.115 | 0.0636 | 0.0927 | 0.0515 | 0.0596 | 0.0543 | 0.0744 | 0.0649 | 0.118 | 0.0627 | 0.0556 |  |  | 0.112
8 | E25H | 0.0561 |  | 0.0633 |  | 0.065 | 0.125 |  | 0.0625 | 0.0627 | 0.0527 |  | 0.0639 |  |  | 0.0645 |  |  | 0.068 | 0.111
9 | E25M | 0.0734 | 0.0705 | 0.0576 | 0.0656 | 0.0734 | 0.173 | 0.07 | 0.089 | 0.088 | 0.0669 | 0.0538 | 0.0873 | 0.103 | 0.124 | 0.0652 | 0.0663 | 0.0818 | 0.0345 | 
10 | I36K | 0.0388 |  | 0.0349 |  | 0.0366 |  |  |  |  |  |  | 0.0489 |  |  | 0.0352 |  |  |  | 0.0437
11 | P14L | 0.0893 | 0.0593 | 0.12 | 0.067 | 0.0728 | 0.126 | 0.0355 | 0.0839 | 0.0799 | 0.0788 | 0.0735 | 0.0873 |  | 0.169 | 0.0855 |  | 0.0994 | 0.0602 | 
12 | P40V | 0.0806 |  | 0.0661 | 0.061 | 0.0598 | 0.116 | 0.0478 | 0.0849 | 0.0533 | 0.0748 | 0.0736 | 0.0745 |  | 0.108 | 0.0792 | 0.0636 |  | 0.0629 | 
13 | F6W | 0.0661 | 0.0676 | 0.056 | 0.0527 | 0.0635 |  | 0.0601 | 0.0786 | 0.058 | 0.0661 | 0.0539 |  | 0.0808 | 0.101 | 0.0776 |  |  | 0.0627 | 
